The results in this text go back to the supplement of paper PMC4604168 (melanoma cell lines).

This is one part of the list. Single values are uncertain, as repeats are few or missing.

Test systems include WM1745; WM3526; WM3619; WM451Lu.
Test in all cases: cell count relative to DMSO control; melanoma cells; higher = more viable cells
Common to all, as to conditions: library dose: low library concentration; 72 h
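Also: cell number obtained by counting DAPI-stained nuclei in high-throughput microscope images with image analysis software, screen run in 1,536-well plates.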

Turning to `COc1ccc2c(c1)CCC1C2CCC2(C)C(NCCCCCCN3C(=O)C=CC3=O)CCC12` (stereo not given) + Oc1nc(-c2ccc(C(F)(F)F)cc2)nc2c1CSCC2 [XAV939] (first compound 0.4 µM, partner dose 2 µM), the cell count turned out to be 90.2% with WM1745, 104% with WM3526, 93.8% in the test on WM3619 and 103% with WM451Lu.

Regarding `COC(=O)c1sccc1S(=O)(=O)Nc1ccc(Nc2ccccc2)cc1OC` + COc1ccc(COc2ccc(Cc3cnc(N)nc3N)cc2OC)cc1 [GW2580] (first compound 1 µM, partner dose 1 µM), the cell count in the test on WM1745 was determined as 109%; in the test on WM3526 it was 106%; with WM3619, 102%; with WM451Lu it was 102%.

Turning to `COC(=O)c1sccc1S(=O)(=O)Nc1ccc(Nc2ccccc2)cc1OC` + Cc1cc([N+](=O)[O-])ccc1NS(=O)(=O)c1cc(Cl)ccc1Cl [FH535] (first compound 1 µM, partner dose 1 µM), the cell count in the test with WM1745 was 88.7%; in the test with WM3526 it was 108%; in the test on WM3619, 104%; with WM451Lu it was 110%.

For the molecule `CCN(CC)CCCCNc1ncc2cc(-c3cc(OC)cc(OC)c3)c(NC(=O)NC(C)(C)C)nc2n1` + COc1cc2ncnc(Nc3ccc(Oc4ccccc4)cc3)c2cc1OC [SrcI1] (first compound 0.1 µM, partner dose 2 µM), the cell count is 87% with WM1745, 100% in the test with WM3526, 77.5% in the test with WM3619 and 124% in the test on WM451Lu.

As for `N#Cc1c(O)c2c(-c3ccc(-c4ccccc4O)cc3)csc2[nH]c1=O` + COc1ccc(-c2ccc3c(N4CCOCC4)nc(N4C[C@@H](C)O[C@@H](C)C4)nc3n2)cc1CO [KU0063794] (first compound 2 µM, partner dose 0.02 µM), the cell count came out at 99.3% in the test on WM1745, 89.7% in the test on WM3526, 111% in the test with WM3619 and 94.5% in the test with WM451Lu.
